± gives the uncertainty stated by the source. The sequences are guide strands of siRNAs; only the seed at positions 2 to 7 varies.
Tests used:
[1] = tested on: 3LL; assay: cell viability relative to siNT1 control; higher = less toxic; details: concentration: 10 nM; 96 h; Mus musculus;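 further: Luminescence-based viability of cells reverse transfected in 384-well plates with lipid-complexed siRNAs built on a non-toxic 19mer backbone whose passenger strand carries 2′-O-methyl groups at positions 1 and 2, triplicates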
Procedure: (§1)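 Arrayed screen of 4096 siRNA duplexes, each carrying one of all possible 6mer seeds at guide-strand positions 2-7 in a fixed neutral 19mer scaffold (constant flanks: U at position 1, then ACAUGUAAACCA, plus a 3' AA overhang). The passenger strand is 2'-O-methylated at positions 1-2 so only the guide strand loads into RISC. Duplexes were reverse-transfected at 10 nM with RNAiMAX in triplicate in 384-well plates; viability was read by CellTiter-Glo ATP content 96 h after transfection. Values are % viability normalised to lipid-only wells (HeyA8, H460, M565) or to siNT1 (3LL).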

[2] = tested on: H460; assay: cell viability relative to lipid-only control; HeyA8 human ovarian and H460 human lung cancer; M565 mouse liver and 3LL mouse lung cancer; siNT1 is a non-toxic control siRNA; higher = less toxic; details: concentration: 10 nM; 96 h; Homo sapiens
Procedure: as §1

[3] = tested on: M565; assay: as above; details: concentration: 10 nM; 96 h; Mus musculus
Procedure: as §1

[4] = tested on: HeyA8; assay: as above; details: concentration: 10 nM; 96 h; Homo sapiens
Procedure: as §1
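Wherever cell viability relative to lipid-only control is given: reverse lipid transfection in 384-well plates, in triplicate, of duplexes on a non-toxic 19mer backbone with passenger strand 2′-O-methylated at positions 1 and 2, luminescence viability read-out.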

Row | Sequence | cell viability [1] [%] | cell viability [2] [%] | cell viability [3] [%] | cell viability [4] [%]
1 | UCAUUUAACAUGUAAACCAAA | 89.4 ± 16 | 47 ± 4.8 | 63.7 ± 9.5 | 68.4 ± 2.9
2 | UAGAAUUACAUGUAAACCAAA | 78.6 ± 17 | 61.7 ± 0.93 | 78.8 ± 6.1 | 65.2 ± 2.9
3 | UUUCAAUACAUGUAAACCAAA | 96.9 ± 6.6 | 51.9 ± 0.83 | 88.5 ± 10 | 95.1 ± 5.3
4 | UUGGCAAACAUGUAAACCAAA | 66.7 ± 7.5 | 91.2 ± 5.1 | 64.3 ± 5.6 | 87.2 ± 4.5
5 | UACCGUAACAUGUAAACCAAA | 85.9 ± 3.5 | 104 ± 15 | 55.3 ± 5.5 | 83.1 ± 5.8
6 | UCGACCGACAUGUAAACCAAA | 94.3 ± 19 | 81.4 ± 14 | 66.9 ± 7.1 | 87.6 ± 4.4
7 | UUUCCUGACAUGUAAACCAAA | 91.1 ± 5.3 | 79.3 ± 8.8 | 76 ± 6.1 | 92.6 ± 7
8 | UUUCCUAACAUGUAAACCAAA | 89.01 ± 0.74 | 68.2 ± 4.2 | 93 ± 9.6 | 101 ± 2.1
9 | UCGGAGAACAUGUAAACCAAA | 95.1 ± 14 | 59.6 ± 6 | 61 ± 3.4 | 66.9 ± 3.7
10 | UGGUCAGACAUGUAAACCAAA | 87.6 ± 4.4 | 43 ± 3.6 | 128 ± 18 | 53.1 ± 19
11 | UCGCGUUACAUGUAAACCAAA | 96.1 ± 19 | 82.4 ± 18 | 76.2 ± 16 | 77.7 ± 7.1
12 | UCUCGGGACAUGUAAACCAAA | 91.1 ± 9.9 | 40.6 ± 4.3 | 60 ± 7 | 87.5 ± 6.6
13 | UACGCGCACAUGUAAACCAAA | 58.2 ± 9.7 | 69.5 ± 8.6 | 35.3 ± 9.8 | 95.8 ± 2.9
14 | UUUUGCCACAUGUAAACCAAA | 15.8 ± 1.1 | 17.7 ± 1.2 | 24.3 ± 4.8 | 26.8 ± 1.2
15 | UUUUAAAACAUGUAAACCAAA | 96.5 ± 3.6 | 75.8 ± 11 | 92.8 ± 4.6 | 96.7 ± 10
16 | UCCUGAGACAUGUAAACCAAA | 95.9 ± 16 | 82.9 ± 22 | 72.7 ± 7 | 88.9 ± 2.9
17 | UCCGUAUACAUGUAAACCAAA | 106 ± 25 | 61.4 ± 15 | 90.9 ± 23 | 74.7 ± 2.6
18 | UAUGUCGACAUGUAAACCAAA | 110 ± 11 | 54.5 ± 0.79 | 79.2 ± 17 | 92.8 ± 1.7
19 | UGGGGCGACAUGUAAACCAAA | 15.3 ± 1.8 | 12.6 ± 3.1 | 17.4 ± 2.6 | 2.17 ± 0.062
20 | UCCCCCCACAUGUAAACCAAA | 29.5 ± 7.6 | 20.3 ± 3.8 | 23.2 ± 4.1 | 22.5 ± 3
21 | UAGAGUAACAUGUAAACCAAA | 81.5 ± 4.7 | 99.3 ± 24 | 59.6 ± 2.5 | 87.5 ± 5.2
22 | UAUUGCCACAUGUAAACCAAA | 38.6 ± 4 | 18.6 ± 1.4 | 34.2 ± 5 | 9.26 ± 1.2
23 | UUUACACACAUGUAAACCAAA | 88.7 ± 1.5 | 86.4 ± 11 | 78.5 ± 3.1 | 100 ± 6.7
24 | UCCCACGACAUGUAAACCAAA | 111 ± 28 | 53 ± 10 | 57.1 ± 9.7 | 100 ± 14

Row | Sequence | cell viability [1] [%] | cell viability [2] [%] | cell viability [3] [%] | cell viability [4] [%]
25 | UUCAGACACAUGUAAACCAAA | 29.8 ± 4 | 33 ± 0.83 | 54.7 ± 0.66 | 45.4 ± 3.4
26 | UUUUUGGACAUGUAAACCAAA | 49.7 ± 3 | 56.7 ± 10 | 34.5 ± 7.2 | 98.8 ± 6.5
27 | UGGACUUACAUGUAAACCAAA | 58.1 ± 5.8 | 67.6 ± 6.7 | 14.5 ± 2.6 | 87.6 ± 7.3
28 | UAGUCAGACAUGUAAACCAAA | 48.3 ± 2.8 | 63.3 ± 13 | 26.4 ± 4.9 | 33.9 ± 3.5
29 | UCGGCCGACAUGUAAACCAAA | 93.5 ± 17 | 51.2 ± 6 | 25.5 ± 1.9 | 45 ± 6.5
30 | UUAAUGCACAUGUAAACCAAA | 19.5 ± 3 | 55.1 ± 7.7 | 83.4 ± 17 | 57.3 ± 1.6
31 | UCUCUAGACAUGUAAACCAAA | 97.6 ± 12 | 35.1 ± 4.8 | 70.3 ± 7.5 | 91.8 ± 2.8
32 | UAGGCCAACAUGUAAACCAAA | 70.3 ± 5.9 | 62.6 ± 8 | 15.1 ± 1.5 | 48.8 ± 0.54
33 | UGAGUAGACAUGUAAACCAAA | 21.4 ± 4 | 70.8 ± 8.3 | 14 ± 3.6 | 22.4 ± 1.2
34 | UUCCAACACAUGUAAACCAAA | 93 ± 22 | 55.9 ± 1.1 | 70.1 ± 6 | 36.7 ± 2.4
35 | UCGCGUAACAUGUAAACCAAA | 91.6 ± 18 | 66.9 ± 11 | 81.9 ± 20 | 86 ± 6
36 | UUACCGUACAUGUAAACCAAA | 73.4 ± 10 | 54.9 ± 7.5 | 34.8 ± 5.3 | 75.8 ± 2.7
37 | UUCAACCACAUGUAAACCAAA | 12.9 ± 4.8 | 22.5 ± 1.8 | 5.48 ± 1.9 | 18.6 ± 3.3
38 | UACCGCGACAUGUAAACCAAA | 80.5 ± 4 | 92 ± 16 | 70.2 ± 14 | 98.5 ± 18
39 | UCGCCUCACAUGUAAACCAAA | 35 ± 7.6 | 70.6 ± 6.2 | 15.4 ± 2.1 | 46.3 ± 4
40 | UGGGUAAACAUGUAAACCAAA | 71.4 ± 1.9 | 33.3 ± 4.8 | 40.1 ± 8.6 | 31.2 ± 2.2
41 | UCAAUCAACAUGUAAACCAAA | 89.2 ± 17 | 56.5 ± 3.2 | 78.5 ± 15 | 82.7 ± 12
42 | UAGUGCUACAUGUAAACCAAA | 86 ± 5.5 | 76.2 ± 8.3 | 116 ± 22 | 70 ± 3.8
43 | UAGUAUAACAUGUAAACCAAA | 91.5 ± 5.4 | 74.7 ± 12 | 71.2 ± 1.7 | 84.2 ± 3.6
44 | UGCGGAAACAUGUAAACCAAA | 87.1 ± 7.4 | 54.6 ± 3.4 | 52.3 ± 2.1 | 56.6 ± 7
45 | UAUUUGGACAUGUAAACCAAA | 97.3 ± 16 | 71.4 ± 8 | 32.3 ± 4.7 | 91.7 ± 6
46 | UGCAGACACAUGUAAACCAAA | 2.77 ± 0.91 | 43.9 ± 2.3 | 15.3 ± 12 | 27.1 ± 5.7
47 | UUCAUUAACAUGUAAACCAAA | 88.9 ± 1.8 | 72.8 ± 9.1 | 72.1 ± 9.1 | 95.9 ± 8.4
48 | UCGGCGUACAUGUAAACCAAA | 92.6 ± 14 | 30.4 ± 1.1 | 29.4 ± 3 | 21.2 ± 1.8

— the supplement of paper PMC6206098
